# The supplement of paper PMC12423691
# The list shows a part of the results. Binding of human transcription factors and regulators to the viral nucleoprotein by AlphaScreen, crude cell-free proteins, amounts not normalised, one pass. Fold of the Venus control; higher = more signal. No active / inactive call. Single-pass screen; sequences are the whole Swiss-Prot entries looked up by name.
# B1: RNF31, Q96EP0 (protein)
# chain: MPGEEEERAFLVAREELASALRRDSGQAFSLEQLRPLLASSLPLAARYLQLDAARLVRCNAHGEPRNYLNTLSTALNILEKYGRNLLSPQRPRYWRGVKFNNPVFRSTVDAVQGGRDVLRLYGYTEEQPDGLSFPEGQEEPDEHQVATVTLEVLLLRTELSLLLQNTHPRQQALEQLLEDKVEDDMLQLSEFDPLLREIAPGPLTTPSVPGSTPGPCFLCGSAPGTLHCPSCKQALCPACDHLFHGHPSRAHHLRQTLPGVLQGTHLSPSLPASAQPRPQSTSLLALGDSSLSSPNPASAHLPWHCAACAMLNEPWAVLCVACDRPRGCKGLGLGTEGPQGTGGLEPDLARGRWACQSCTFENEAAAVLCSICERPRLAQPPSLVVDSRDAGICLQPLQQGDALLASAQSQVWYCIHCTFCNSSPGWVCVMCNRTSSPIPAQHAPRPYASSLEKGPPKPGPPRRLSAPLPSSCGDPEKQRQDKMREEGLQLVSMIREGEAAGACPEEIFSALQYSGTEVPLQWLRSELPYVLEMVAELAGQQDPGLGAFSCQEARRAWLDRHGNLDEAVEECVRTRRRKVQELQSLGFGPEEGSLQALFQHGGDVSRALTELQRQRLEPFRQRLWDSGPEPTPSWDGPDKQSLVRRLLAVYALPSWGRAELALSLLQETPRNYELGDVVEAVRHSQDRAFLRRLLAQECAVCGWALPHNRMQALTSCECTICPDCFRQHFTIALKEKHITDMVCPACGRPDLTDDTQLLSYFSTLDIQLRESLEPDAYALFHKKLTEGVLMRDPKFLWCAQCSFGFIYEREQLEATCPQCHQTFCVRCKRQWEEQHRGRSCEDFQNWKRMNDPEYQAQGLAMYLQENGIDCPKCKFSYALARGGCMHFHCTQCRHQFCSGCYNAFYAKNKCPEPNCRVKKSLHGHHPRDCLFYLRDWTALRLQKLLQDNNVMFNTEPPAGARAVPGGGCRVIEQKEVPNGLRDEACGKETPAGYAGLCQAHYKEYLVSLINAHSLDPATLYEVEELETATERYLHVRPQPLAGEDPPAYQARLLQKLTEEVPLGQSIPRRRK
# B2: FOXO4, P98177 (protein)
# chain: MDPGNENSATEAAAIIDLDPDFEPQSRPRSCTWPLPRPEIANQPSEPPEVEPDLGEKVHTEGRSEPILLPSRLPEPAGGPQPGILGAVTGPRKGGSRRNAWGNQSYAELISQAIESAPEKRLTLAQIYEWMVRTVPYFKDKGDSNSSAGWKNSIRHNLSLHSKFIKVHNEATGKSSWWMLNPEGGKSGKAPRRRAASMDSSSKLLRGRSKAPKKKPSVLPAPPEGATPTSPVGHFAKWSGSPCSRNREEADMWTTFRPRSSSNASSVSTRLSPLRPESEVLAEEIPASVSSYAGGVPPTLNEGLELLDGLNLTSSHSLLSRSGLSGFSLQHPGVTGPLHTYSSSLFSPAEGPLSAGEGCFSSSQALEALLTSDTPPPPADVLMTQVDPILSQAPTLLLLGGLPSSSKLATGVGLCPKPLEAPGPSSLVPTLSMIAPPPVMASAPIPKALGTPVLTPPTEAASQDRMPQDLDLDMYMENLECDMDNIISDLMDEGEGLDFNFEPDP
# B3: SKIL, P12757 (protein)
# chain: MENLQTNFSLVQGSTKKLNGMGDDGSPPAKKMITDIHANGKTINKVPTVKKEHLDDYGEAPVETDGEHVKRTCTSVPETLHLNPSLKHTLAQFHLSSQSSLGGPAAFSARHSQESMSPTVFLPLPSPQVLPGPLLIPSDSSTELTQTVLEGESISCFQVGGEKRLCLPQVLNSVLREFTLQQINTVCDELYIYCSRCTSDQLHILKVLGILPFNAPSCGLITLTDAQRLCNALLRPRTFPQNGSVLPAKSSLAQLKETGSAFEVEHECLGKCQGLFAPQFYVQPDAPCIQCLECCGMFAPQTFVMHSHRSPDKRTCHWGFESAKWHCYLHVNQKYLGTPEEKKLKIILEEMKEKFSMRSGKRNQSKTDAPSGMELQSWYPVIKQEGDHVSQTHSFLHPSYYLYMCDKVVAPNVSLTSAVSQSKELTKTEASKSISRQSEKAHSSGKLQKTVSYPDVSLEEQEKMDLKTSRELCSRLDASISNNSTSKRKSESATCNLVRDINKVGIGLVAAASSPLLVKDVICEDDKGKIMEEVMRTYLKQQEKLNLILQKKQQLQMEVKMLSSSKSMKELTEEQQNLQKELESLQNEHAQRMEEFYVEQKDLEKKLEQIMKQKCTCDSNLEKDKEAEYAGQLAELRQRLDHAEADRQELQDELRQEREARQKLEMMIKELKLQILKSSKTAKE
# B4: RELB, Q01201 (protein)
# chain: MLRSGPASGPSVPTGRAMPSRRVARPPAAPELGALGSPDLSSLSLAVSRSTDELEIIDEYIKENGFGLDGGQPGPGEGLPRLVSRGAASLSTVTLGPVAPPATPPPWGCPLGRLVSPAPGPGPQPHLVITEQPKQRGMRFRYECEGRSAGSILGESSTEASKTLPAIELRDCGGLREVEVTACLVWKDWPHRVHPHSLVGKDCTDGICRVRLRPHVSPRHSFNNLGIQCVRKKEIEAAIERKIQLGIDPYNAGSLKNHQEVDMNVVRICFQASYRDQQGQMRRMDPVLSEPVYDKKSTNTSELRICRINKESGPCTGGEELYLLCDKVQKEDISVVFSRASWEGRADFSQADVHRQIAIVFKTPPYEDLEIVEPVTVNVFLQRLTDGVCSEPLPFTYLPRDHDSYGVDKKRKRGMPDVLGELNSSDPHGIESKRRKKKPAILDHFLPNHGSGPFLPPSALLPDPDFFSGTVSLPGLEPPGGPDLLDDGFAYDPTAPTLFTMLDLLPPAPPHASAVVCSGGAGAVVGETPGPEPLTLDSYQAPGPGDGGTASLVGSNMFPNHYREAAFGGGLLSPGPEAT
# B5: TFEB, P19484 (protein)
# chain: MASRIGLRMQLMREQAQQEEQRERMQQQAVMHYMQQQQQQQQQQLGGPPTPAINTPVHFQSPPPVPGEVLKVQSYLENPTSYHLQQSQHQKVREYLSETYGNKFAAHISPAQGSPKPPPAASPGVRAGHVLSSSAGNSAPNSPMAMLHIGSNPERELDDVIDNIMRLDDVLGYINPEMQMPNTLPLSSSHLNVYSSDPQVTASLVGVTSSSCPADLTQKRELTDAESRALAKERQKKDNHNLIERRRRFNINDRIKELGMLIPKANDLDVRWNKGTILKASVDYIRRMQKDLQKSRELENHSRRLEMTNKQLWLRIQELEMQARVHGLPTTSPSGMNMAELAQQVVKQELPSEEGPGEALMLGAEVPDPEPLPALPPQAPLPLPTQPPSPFHHLDFSHSLSFGGREDEGPPGYPEPLAPGHGSPFPSLSKKDLDLMLLDDSLLPLASDPLLSTMSPEASKASSRRSSFSMEEGDVL
# B6: CMKLR1, Q99788 (protein)
# chain: MRMEDEDYNTSISYGDEYPDYLDSIVVLEDLSPLEARVTRIFLVVVYSIVCFLGILGNGLVIIIATFKMKKTVNMVWFLNLAVADFLFNVFLPIHITYAAMDYHWVFGTAMCKISNFLLIHNMFTSVFLLTIISSDRCISVLLPVWSQNHRSVRLAYMACMVIWVLAFFLSSPSLVFRDTANLHGKISCFNNFSLSTPGSSSWPTHSQMDPVGYSRHMVVTVTRFLCGFLVPVLIITACYLTIVCKLQRNRLAKTKKPFKIIVTIIITFFLCWCPYHTLNLLELHHTAMPGSVFSLGLPLATALAIANSCMNPILYVFMGQDFKKFKVALFSRLVNALSEDTGHSSYPSHRSFTKMSSMNERTSMNERETGML
# B7: ETV6, P41212 (protein)
# chain: MSETPAQCSIKQERISYTPPESPVPSYASSTPLHVPVPRALRMEEDSIRLPAHLRLQPIYWSRDDVAQWLKWAENEFSLRPIDSNTFEMNGKALLLLTKEDFRYRSPHSGDVLYELLQHILKQRKPRILFSPFFHPGNSIHTQPEVILHQNHEEDNCVQRTPRPSVDNVHHNPPTIELLHRSRSPITTNHRPSPDPEQRPLRSPLDNMIRRLSPAERAQGPRPHQENNHQESYPLSVSPMENNHCPASSESHPKPSSPRQESTRVIQLMPSPIMHPLILNPRHSVDFKQSRLSEDGLHREGKPINLSHREDLAYMNHIMVSVSPPEEHAMPIGRIADCRLLWDYVYQLLSDSRYENFIRWEDKESKIFRIVDPNGLARLWGNHKNRTNMTYEKMSRALRHYYKLNIIRKEPGQRLLFRFMKTPDEIMSGRTDRLEHLESQELDEQIYQEDEC
# B8: TNFSF18, Q9UNG2 (protein)
# chain: MCLSHLENMPLSHSRTQGAQRSSWKLWLFCSIVMLLFLCSFSWLIFIFLQLETAKEPCMAKFGPLPSKWQMASSEPPCVNKVSDWKLEILQNGLYLIYGQVAPNANYNDVAPFEVRLYKNKDMIQTLTNKSKIQNVGGTYELHVGDTIDLIFNSEHQVLKNNTYWGIILLANPQFIS
# B9: IRF7, Q92985 (protein)
# chain: MALAPERAAPRVLFGEWLLGEISSGCYEGLQWLDEARTCFRVPWKHFARKDLSEADARIFKAWAVARGRWPPSSRGGGPPPEAETAERAGWKTNFRCALRSTRRFVMLRDNSGDPADPHKVYALSRELCWREGPGTDQTEAEAPAAVPPPQGGPPGPFLAHTHAGLQAPGPLPAPAGDKGDLLLQAVQQSCLADHLLTASWGADPVPTKAPGEGQEGLPLTGACAGGPGLPAGELYGWAVETTPSPGPQPAALTTGEAAAPESPHQAEPYLSPSPSACTAVQEPSPGALDVTIMYKGRTVLQKVVGHPSCTFLYGPPDPAVRATDPQQVAFPSPAELPDQKQLRYTEELLRHVAPGLHLELRGPQLWARRMGKCKVYWEVGGPPGSASPSTPACLLPRNCDTPIFDFRVFFQELVEFRARQRRGSPRYTIYLGFGQDLSAGRPKEKSLVLVKLEPWLCRVHLEGTQREGVSSLDSSSLSLCLSSANSLYDDIECFLMELEQPA
# Molecular target: nucleoprotein N of Crimean-Congo hemorrhagic fever virus
# Experiment: AlphaScreen luminescence signal relative to Venus negative control (fold); higher = stronger binding to CCHFV N
# Description: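 AlphaScreen binding of cell-free made, FLAG-GST-tagged human transcription factors and regulators (crude translation products) to biotinylated N protein; signal as fold of the FLAG-GST-Venus control. One pass.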
row,Binder,AlphaScreen luminescence signal
1,B1,2.19
2,B2,5.02
3,B3,1.81
4,B4,1.72
5,B5,2.7
6,B6,3.86
7,B7,2.23
8,B8,2.28
9,B9,2.33
